{
  "source": "PubChem BioAssay AID1508624",
  "about": "(National Center for Advancing Translational Sciences (NCATS), 2021)",
  "note": "Values joined by “and” are separate entries in the source; they are usually repeats but may differ in a detail not shown here. Equal entries are not always repeated. Hit rate of the full screen: of about 48,000 compounds, about 120 (0.25%) were called active. Another 4% or so got no clear call; they are omitted. Calls follow the shape of the dose curve; as a rule, active = well fitted activation curve with a large enough effect; inconclusive = small, poorly fitted or top-dose-only effect, or another doubt; inactive = no such curve, though single readings can be large or run the other way. This is one part of the list.",
  "data": [
    {"assay": "Primary qHTS for Identification of Small Molecule Activators of Huntingtin-Antisense Promoter Activity; also: nearly all actives have a fitted effect of over 55% in size", "conditions": "HEK293 HTT-AS promoter firefly luciferase reporter, 24 h; at 57.5 µM (top of the series) unless noted", "procedure,_shortened": "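Luminescence was read after Dual-Glo reagent and a 10 min room-temperature incubation. Values were normalized to vehicle (0% activity) and zero RLU (-100% activity). Reporter HEK293 cells had been exposed to compounds (up to 57.5 uM final) for 24 h.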", "values": [
      {"compound": "CCN(CC)C(=O)c1ccc(C2=CC3(CCNCC3)Oc3cccc(O)c32)cc1", "activity change, positive = activation": "inactive: -3.13%"},
      {"compound": "O=C1CC(c2ccc(Br)cc2)c2c(c3ccccc3oc2=O)O1", "note": "(centres undefined)", "activity change, positive = activation": "inactive: -9.54% [at 57.5 µM, percent change from vehicle, -100% = no light]"},
      {"compound": "C[C@H]1CCCC=CC2C[C@H](O)C[C@@H]2[C@H](O)C=CC(=O)O1", "note": "(some centres undefined)", "activity change, positive = activation": "inactive: -35.6%"},
      {"compound": "O=C(Nc1ccon1)c1cccn(Cc2cccc(Cl)c2)c1=O", "activity change, positive = activation": "inactive: -16.2% [at 57.5 µM, percent change from vehicle, -100% = no light]"},
      {"compound": "CC[N+]1(CC)CCC(OC(=O)C(O)(c2ccccc2)c2ccccc2)C1", "note": "(centres undefined)", "activity change, positive = activation": "inactive: -8.92%"},
      {"compound": "O=c1[nH]c2ccccc2c(=O)n1-c1ccc(Cl)c(Cl)c1", "activity change, positive = activation": "inactive: 4.16% [at 57.5 µM, percent change from vehicle, -100% = no light]"},
      {"compound": "Cc1cccc(NC(=O)Cn2cc(C(=O)c3ccccc3)c3ccccc32)c1C", "activity change, positive = activation": "inactive: -35.4%"},
      {"compound": "Cc1oc(-c2ccc(Cl)cc2)nc1CN1C(=O)CN=C(c2ccccc2)c2ccccc21", "activity change, positive = activation": "inactive: -25.6%"},
      {"compound": "C=CCC1([C@H](C)CCC)C(=O)NC(=O)NC1=O", "activity change, positive = activation": "inactive: -17.2% [at 116 µM]"},
      {"compound": "O=C(Nc1ccon1)c1cccn(Cc2ccccc2)c1=O", "activity change, positive = activation": "inactive: 3.26% [at 57.5 µM, percent change from vehicle, -100% = no light]"},
      {"compound": "CC[C@H]1C[C@@H]2C[C@H]3c4[nH]c5ccc(OC)cc5c4CCN(C2)[C@@H]13", "activity change, positive = activation": "inactive: -15.3% [at 116 µM]"},
      {"compound": "C[C@]12CCC(=O)C(O)=C1CC[C@@H]1[C@@H]2CC[C@]2(C)C(=O)CC[C@@H]12", "activity change, positive = activation": "inactive: -12%"},
      {"compound": "COc1ccc(/C=C/c2nc3ccccc3c(=O)n2-c2ccc(C)cc2)cc1O", "activity change, positive = activation": "inactive: -15.3% [at 57.5 µM, percent change from vehicle, -100% = no light]"},
      {"compound": "OC(O)C(Cl)(Cl)Cl", "activity change, positive = activation": "inactive: 0.285%"},
      {"compound": "CNC(C)(C)Cc1ccccc1", "activity change, positive = activation": "inactive: -4.87%"},
      {"compound": "CCOP(=S)(OCC)Oc1cc(C)nc(C(C)C)n1", "activity change, positive = activation": "inactive: -4.96%"},
      {"compound": "c1ccc(C2CC2)c(OCC2=NCCN2)c1", "activity change, positive = activation": "inactive: -8.3%"},
      {"compound": "Cc1cccc(-n2c(/C=C/c3cn(C)c4ccccc34)nc3ccccc3c2=O)c1", "activity change, positive = activation": "inactive: -31%"},
      {"compound": "COCC(=O)N(c1c(C)cccc1C)C(C)C(=O)OC", "note": "(centres undefined)", "activity change, positive = activation": "inactive: -5.58% [at 57.5 µM, percent change from vehicle, -100% = no light]"},
      {"compound": "Cc1ccc(-c2nc(CN3C(=O)CN=C(c4ccccc4)c4cc(Cl)ccc43)c(C)o2)cc1", "activity change, positive = activation": "inactive: -27.1% [at 57.5 µM, percent change from vehicle, -100% = no light]"},
      {"compound": "Cc1cc(NC(=O)c2cccn(Cc3cccc(Cl)c3)c2=O)no1", "activity change, positive = activation": "inactive: -14% [at 57.5 µM, percent change from vehicle, -100% = no light]"},
      {"compound": "O=C(O)CCCOc1ccc(Cl)cc1Cl", "activity change, positive = activation": "inactive: 2.68% [at 116 µM]"},
      {"compound": "O=C(COc1cccc(Cl)c1)N1CCN(CCc2ccncc2)CC1", "activity change, positive = activation": "inactive: -16.4%"},
      {"compound": "CCCN(CCC)c1c([N+](=O)[O-])cc(S(N)(=O)=O)cc1[N+](=O)[O-]", "activity change, positive = activation": "inactive: -40.8% [at 116 µM]"},
      {"compound": "CC(=Cc1csc(C)n1)[C@@H]1C[C@H]2O[C@@H]2CCC[C@H](C)[C@@H](O)[C@@H](C)C(=O)C(C)(C)[C@@H](O)CC(=O)O1", "activity change, positive = activation": "inactive: -29.2%"},
      {"compound": "Cc1ccc(Cn2cccc(C(=O)Nc3cc([N+](=O)[O-])ccc3C)c2=O)cc1", "activity change, positive = activation": "inactive: 0.461% [at 57.5 µM, percent change from vehicle, -100% = no light]"},
      {"compound": "O=S1(=O)N(Cc2ccccc2)CCCN1Cc1cccc(Cl)c1", "activity change, positive = activation": "inactive: -19%"},
      {"compound": "CNCC(O)c1ccc(O)cc1", "note": "(centres undefined)", "activity change, positive = activation": "inactive: -14.4% and inactive: 1.38%"},
      {"compound": "CC(C)NCC(O)c1ccc(N)c(C#N)c1", "note": "(centres undefined)", "activity change, positive = activation": "inactive: -4.06%"},
      {"compound": "CCC(OC(C)=O)C(CC(C)NC)(c1ccccc1)c1ccccc1", "note": "(centres undefined)", "activity change, positive = activation": "inactive: -28.3% [at 116 µM]"},
      {"compound": "CC(Cc1ccccc1)NCCCCl", "note": "(centres undefined)", "activity change, positive = activation": "inactive: -1.66%"},
      {"compound": "N#Cc1cc2c(nc1SCC(=O)Nc1ccc(OC(F)(F)F)cc1)C1CCN2CC1", "activity change, positive = activation": "inactive: -51.1%"},
      {"compound": "O=C(COc1ccccc1Cl)N1CCN(CCc2ccncc2)CC1", "activity change, positive = activation": "inactive: -21.9%"},
      {"compound": "O=C(CCc1nc(C2=CCN(Cc3cccc(Cl)c3)CC2)no1)Nc1ccccc1F", "activity change, positive = activation": "inactive: -12.7%"},
      {"compound": "C[C@]12CCC(=O)C=C1CC[C@@H]1[C@@H]2CC[C@@]2(C)[C@H]1CC[C@]2(C)O", "activity change, positive = activation": "inactive: -26.5%"},
      {"compound": "CCS(=O)(=O)C(C)(C)S(=O)(=O)CC", "activity change, positive = activation": "inactive: -13.7%"},
      {"compound": "CN(C)CCc1c[nH]c2cccc(OP(=O)(O)O)c12", "activity change, positive = activation": "inactive: -16% [at 116 µM]"},
      {"compound": "Cc1cccc(NC(=O)Cn2cc(C(=O)c3ccccc3)c3ccccc32)c1", "activity change, positive = activation": "inactive: -45.3%"},
      {"compound": "O=c1c2ccccc2nc(/C=C\\c2ccc(F)cc2)n1-c1ccccc1F", "activity change, positive = activation": "inactive: -27.6%"},
      {"compound": "O=c1[nH]c2cc(Cl)ccc2n1C1CCNCC1", "activity change, positive = activation": "inactive: -5.63%"},
      {"compound": "c1ccc(CCCN2CCN(CCOC(c3ccccc3)c3ccccc3)CC2)cc1", "activity change, positive = activation": "inactive: -28.5%"},
      {"compound": "CC(=O)NS(=O)(=O)c1ccc(NC(=O)c2cccn(Cc3ccc(Cl)cc3)c2=O)cc1", "activity change, positive = activation": "inactive: -11.1% [at 57.5 µM, percent change from vehicle, -100% = no light]"},
      {"compound": "COc1ccc(OCC(=O)N2CCN(Cc3cc(=O)n4nc(-c5ccccc5C)sc4n3)CC2)cc1", "activity change, positive = activation": "inactive: -19.3%"},
      {"compound": "Clc1cccc(SC2CCNCC2)n1", "activity change, positive = activation": "inactive: -1.54%"},
      {"compound": "CCOC(=O)c1ncn2c1CN(C)C(=O)c1c(I)cccc1-2", "activity change, positive = activation": "inactive: -0.0584%"},
      {"compound": "O=C(O)Cc1ccccc1", "activity change, positive = activation": "inactive: -8.12%"},
      {"compound": "COc1ccc(C(=O)c2c(C)n(CCN3CCOCC3)c3ccccc23)cc1", "activity change, positive = activation": "inactive: -2.35% and inactive: -31.5%"},
      {"compound": "c1cc2c(c(N3CCNCC3)c1)OCCO2", "activity change, positive = activation": "inactive: -3.6%"},
      {"compound": "CN1C(=O)[C@@H](NC(=O)c2cc3ccccc3[nH]2)N=C(c2ccccc2)c2ccccc21", "activity change, positive = activation": "inactive: -45.6%"}
    ]}
  ]
}
